# Test results from PubChem BioAssay (Tox21).
# Several values for one entry are separate records, joined by “and”; a condition that tells them apart may be missing. Equal entries are not always repeated. This list was built around the results that the source calls inconclusive (neither active nor inactive); the mix of calls is not that of the screen. For part of these data: Where the call is inconclusive, the potency comes from a doubtful curve fit. Activity calls are given as the source filed them. Unless noted, the call rests on the fitted dose curve; in most records, active means well fitted curve in the direction sought with a large enough effect in the repeat runs; inconclusive means weak or mixed curves; inactive means no such curve, though single readings can be large; an effect the other way counts as inactive or inconclusive.
# Experiments:
# [1] = qHTS assay for identifying genotoxic compounds that show differential cytotoxicity against isogenic chicken DT40 cell lines with known DNA damage response pathways - wild type cell line (AID 743012); conditions: DT40 wild type chicken cells viability, CellTiter-Glo, 40 h; activity change, negative = cytotoxicity: at 68.4 µM (top of the series) unless noted; further: nearly all actives have a fitted effect of over 60% in size; further: potency means the concentration at half of the fitted maximal effect; on activity change, negative = cytotoxicity: on the % scale 0 is the no-effect control and ±100 the full control effect
# How it was run: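 Viability by ATP luminescence (CellTiter-Glo, 30 min RT) after 40 h compound treatment at 37 C/5% CO2, using 300 parental DNA repair-proficient DT40 cells per well.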
# [2] = qHTS assay to identify small molecule antagonists of the estrogen receptor alpha (ER-alpha) signaling pathway using the BG1 cell line - cell viability counter screen (AID 743081); conditions: BG1Luc4E2 viability, CellTiter-Fluor, 22 h; activity change, negative = cytotoxicity: at 70.3 µM (top of the series) unless noted;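 further: compound given together with 17beta-estradiol as the ER stimulus; potency means the concentration at half of the fitted maximal effect; nearly all actives have a fitted effect of over 45% in size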
# [3] = qHTS assay for identifying genotoxic compounds that show differential cytotoxicity against isogenic chicken DT40 cell lines with known DNA damage response pathways - Rev3 mutant cell line (AID 743014); conditions: chicken DT40 Rev3-/- viability, CellTiter-Glo, 40 h; activity, negative = cytotoxicity: at 68.4 µM (top of the series); further: nearly all actives have a fitted effect of over 55% in size; further: potency means the concentration at half of the fitted maximal effect
# [4] = qHTS assay to identify small molecule antagonists of the estrogen receptor alpha (ER-alpha) signaling pathway - cell viability counter screen (AID 743074; calls by dose curve; further: nearly all actives have a fitted effect of over 45% in size; further: potency means the concentration at half of the fitted maximal effect; on activity, negative = cytotoxicity: on the % scale 0 is the no-effect control and ±100 the full control effect)
# [5] = qHTS assay to identify small molecule antagonists of the thyroid receptor (TR) signaling pathway - cell viability counter screen (AID 743064); conditions: GH3.TRE-Luc viability, CellTiter-Fluor, 24 h; activity change, negative = cytotoxic: at 70.3 µM (top of the series) unless noted; further: nearly all actives have a fitted effect of over 50% in size; further: potency means the concentration at half of the fitted maximal effect; on activity change, negative = cytotoxic: on the % scale 0 is the no-effect control and ±100 the full control effect
# How it was run: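 Same-well viability check: GH3.TRE-Luc cells stimulated with 1 nM T3 alongside test compound for 23.5 h, followed by CellTiter-Fluor fluorescence.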
# [6] = biological target: Estrogen receptor (Homo sapiens) (UniProt P03372); test: qHTS assay to identify small molecule agonists of the estrogen receptor alpha (ER-alpha) signaling pathway (AID 743075; calls by dose curve; further: potency means the concentration at half of the fitted maximal effect)
# UniProt P03372, sequence (P03372 whole entry, looked up): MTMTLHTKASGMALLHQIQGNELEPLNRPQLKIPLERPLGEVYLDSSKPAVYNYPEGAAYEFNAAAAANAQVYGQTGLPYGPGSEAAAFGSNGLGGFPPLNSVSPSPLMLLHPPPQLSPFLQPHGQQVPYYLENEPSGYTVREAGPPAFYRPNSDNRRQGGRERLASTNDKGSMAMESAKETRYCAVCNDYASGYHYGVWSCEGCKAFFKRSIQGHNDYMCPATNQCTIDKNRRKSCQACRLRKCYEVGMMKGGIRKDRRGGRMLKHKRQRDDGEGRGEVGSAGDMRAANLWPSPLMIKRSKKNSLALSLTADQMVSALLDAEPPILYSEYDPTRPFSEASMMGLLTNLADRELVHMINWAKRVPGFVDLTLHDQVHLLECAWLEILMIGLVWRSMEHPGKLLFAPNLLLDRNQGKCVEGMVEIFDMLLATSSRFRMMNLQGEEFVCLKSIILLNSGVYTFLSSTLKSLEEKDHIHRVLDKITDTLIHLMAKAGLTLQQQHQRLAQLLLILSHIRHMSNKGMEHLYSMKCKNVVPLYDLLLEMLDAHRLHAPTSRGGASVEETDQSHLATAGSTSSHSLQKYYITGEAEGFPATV
# [7] = biological target: Estrogen receptor (Homo sapiens) (UniProt P03372); test: qHTS assay to identify small molecule agonists of the estrogen receptor alpha (ER-alpha) signaling pathway using the BG1 cell line (AID 743079); conditions: BG1Luc4E2 cells, ERE-luciferase agonist, 22 h; activation: at 70.3 µM (top of the series) unless noted; further: nearly all actives have a fitted effect of over 20% in size; further: potency means the concentration at half of the fitted maximal effect
# [8] = qHTS assay to identify small molecule antagonists of the estrogen receptor alpha (ER-alpha) signaling pathway using the BG1 cell line (AID 743080; calls by dose curve; further: nearly all actives have a fitted effect of over 25% in size; further: potency means the concentration at half of the fitted maximal effect); conditions: BG1Luc4E2 ERE-luciferase antagonist mode, luminescence; activity change, negative = inhibition: at 70.3 µM (top of the series) unless noted
# How it was run: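 Antagonist mode: compounds in DMSO were pinned onto BG1-Luc-4E2 cells alongside 17beta-estradiol agonist, incubated 21.5 h, and ERE-driven luciferase measured with ONE-Glo. Cytotoxicity was multiplexed using CellTiter-Fluor fluorescence.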
# [9] = biological target: Estrogen receptor (Homo sapiens) (UniProt P03372); test: qHTS assay to identify small molecule antagonists of the estrogen receptor alpha (ER-alpha) signaling pathway (AID 743069; active means well fitted curve in the direction sought with a large enough effect in the signal ratio in the repeat runs, not every such curve was filed as active; inconclusive means weak or mixed curves, or effect the other way; inactive means no such curve, though single readings can be large or run the other way; the % refers to the signal ratio; further: potency means the concentration at half of the fitted maximal effect; on activity, negative = inhibition: on the % scale 0 is the no-effect control and ±100 the full control effect); conditions: HEK293 ER-alpha-UAS-bla, beta-lactamase ratio, antagonist mode; activity, negative = inhibition: at 69.4 µM (top of the series) unless noted
# How it was run: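 Fluorescence intensity from a beta-lactamase FRET substrate served as the read-out. Cells: HEK293 with stably integrated ER-alpha-UAS-bla reporter. Agonist 17beta-estradiol was co-added with compounds; incubation 18 hr at 37C, substrate 2 hr at room temperature.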
# Aromatase (Homo sapiens) = Aromatase (Homo sapiens) (UniProt P11511); test: qHTS assay to identify aromatase inhibitors (AID 743083); conditions: MCF-7 aro ERE, testosterone-driven ERE luciferase, 24 h; activity, negative = inhibition: at 70.3 µM (top of the series); further: on the % scale 0 is the no-effect control and ±100 the full control effect; nearly all actives have a fitted effect of over 55% in size
# UniProt P11511, sequence (P11511 whole entry, looked up): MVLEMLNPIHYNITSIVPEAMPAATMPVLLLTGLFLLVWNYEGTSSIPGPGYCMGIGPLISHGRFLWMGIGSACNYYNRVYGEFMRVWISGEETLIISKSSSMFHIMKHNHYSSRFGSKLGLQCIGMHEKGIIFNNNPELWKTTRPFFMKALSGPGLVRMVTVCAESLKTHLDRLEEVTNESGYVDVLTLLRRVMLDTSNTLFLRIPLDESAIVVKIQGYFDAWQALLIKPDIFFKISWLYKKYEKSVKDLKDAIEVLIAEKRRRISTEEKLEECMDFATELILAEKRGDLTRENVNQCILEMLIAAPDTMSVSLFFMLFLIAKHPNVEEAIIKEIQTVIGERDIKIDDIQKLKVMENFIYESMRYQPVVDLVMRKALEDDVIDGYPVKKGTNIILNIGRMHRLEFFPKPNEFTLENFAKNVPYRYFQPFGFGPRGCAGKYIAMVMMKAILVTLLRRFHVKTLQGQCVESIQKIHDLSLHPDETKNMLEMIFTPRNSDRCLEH
# [10] = qHTS assay to identify small molecule antagonists of the thyroid receptor (TR) signaling pathway (AID 743065); further: nearly all actives have a fitted effect of over 55% in size; further: potency means the concentration at half of the fitted maximal effect
# How it was run: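 Antagonism measured as loss of luciferase signal in GH3 cells stably carrying a TRE-luciferase reporter, co-treated with compound and T3 (1 nM final) for 23.5 h at 37 C. Viability was read in the same well by CellTiter-Fluor.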
# Tags describe the fitted curve by direction and shape or compound fluorescence and quenching.
smiles,measurement,setting,value
C[N+](C)(C)CCCCCC[N+](C)(C)C,Potency,[1],inactive
same,Potency,[2],"inconclusive: 1.5 µM [rising, full curve, poor fit]"
CC(C)=CCC/C(C)=C/COC=O,Potency,[3],"inconclusive: 68.6 µM [cytotoxic, single point]"
O=P(O)(O)OCC(O)CO (stereo not drawn),Potency,[1],inactive
same,Potency,[4],"inconclusive: 9.52 µM [cytotoxic, single point]"
CC(=O)c1ccc2c(c1)Cc1ccccc1-2,Potency,[1],"inconclusive: 0.612 µM [rising, single point]"
same,"activity change, negative = cytotoxic",[5],inconclusive: 32%
same,Potency,[6],"inconclusive: 19.5 µM [activator, partial curve]"
same,Potency,[7],active: 24.4 µM
same,Potency,[8],"inconclusive: 48.6 µM [rising, partial curve]"
CCCCCCCC/C=C/CCCOC(C)=O,Potency,[3],"inconclusive: 43.3 µM [cytotoxic, partial curve, poor fit]"
CCOc1ccc(N)c([N+](=O)[O-])c1,Potency,[3],"inconclusive: 68.6 µM [cytotoxic, partial curve, poor fit]"
CC(=O)[C@@]1(O)CC[C@H]2[C@@H]3C[C@H](C)C4=CC(=O)CC[C@]4(C)[C@H]3CC[C@@]21C,Potency,[1],active: 16.8 µM
same,Potency,[9],"inconclusive: 0.0425 µM [activator, full curve]"
same,Potency,[7],"inconclusive: 0.298 µM [activator, single point]"
same,Potency,[8],"inconclusive: 0.106 µM [rising, full curve, poor fit]"
same,Potency,Aromatase (Homo sapiens),inactive
Cc1ccc(-c2ccccc2)cc1,Potency,[3],"inconclusive: 68.6 µM [cytotoxic, single point]"
CC(C)(C)CC(C)(C)N,Potency,[1],inactive
same,Potency,[4],inactive
COCCOC(=O)C1=C(C)NC(C)=C(C(=O)OC(C)C)C1c1cccc([N+](=O)[O-])c1 (stereo not drawn),Potency,[1],active: 26.6 µM
same,Potency,[10],"inconclusive: 18.8 µM [inhibitor, partial curve]"
same,"activity, negative = inhibition",[9],inconclusive: -3.63%
NC=O,Potency,[1],"inconclusive: 15.1 µM [rising, single point]"
same,Potency,[5],"inconclusive: 61.1 µM [rising, single point]"
same,Potency,Aromatase (Homo sapiens),inactive
COC(=O)CC#N,Potency,[1],inactive
same,Potency,[4],inactive
same,Potency,[7],inactive
same,Potency,[8],inactive
CCC(C)NC(N)=O (stereo not drawn),Potency,[3],"inconclusive: 24.3 µM [cytotoxic, partial curve]"
C=CCOCC(O)CS(=O)(=O)O (stereo not drawn),Potency,[1],inactive
same,Potency,[8],inactive
CO[Si](OC)(OC)c1ccccc1,Potency,[3],inactive
O=Cc1c2ccccc2c(Cl)c2ccccc12,Potency,[1],"inconclusive: 0.299 µM [rising, single point]"
same,Potency,[10],inactive
CCCCOCCOC(=O)CCCCCCCCC(=O)OCCOCCCC,Potency,[3],inactive
NC(=O)NC1NC(=O)NC1=O (stereo not drawn),Potency,[1],"inconclusive: 14.3 µM [rising, partial curve, poor fit]"
same,Potency,[10],inactive
same,Potency,[4],"inconclusive: 21.9 µM [rising, single point]"
c1ccc(-c2nn[nH]n2)cc1,Potency,[1],"inconclusive: 27.3 µM [rising, single point]"
same,"activity, negative = inhibition",[9],inconclusive: 20.4%
same,Potency,Aromatase (Homo sapiens),inactive
Cc1ccc2c(c1)C(=O)c1ccccc1C2=O,Potency,[1],active: 48.4 µM
same,Potency,[9],"inconclusive: 0.689 µM [activator, full curve]"
same,Potency,[4],inactive
same,Potency,[7],active: 34.2 µM
same,Potency,[8],"inconclusive: 24.2 µM [rising, partial curve]"
Cc1ccc2ccccc2n1,Potency,[3],inactive
CC(C)[N+](C)(C)CC(O)COc1cccc2ccccc12 (stereo not drawn),Potency,[1],inactive
same,Potency,[8],inactive
CCCCCC1=CCCC1=O,Potency,[1],inactive
same,Potency,[5],"inconclusive: 27.9 µM [rising, single point] and inconclusive: 6.86 µM [rising, single point]"
same,Potency,[4],"inconclusive: 19.9 µM [rising, partial curve, poor fit]"
CCCCCCCCCCCCO,Potency,[3],"inconclusive: 69.2 µM [rising, partial curve, poor fit]"
CC(C)CCCCCOC(=O)CCS,Potency,[3],"inconclusive: 27.3 µM [cytotoxic, single point]"
O=c1[nH]cnc2[nH]ncc12,Potency,[1],inactive
same,Potency,[9],"inconclusive: 44.7 µM [inhibitor, partial curve]"
same,Potency,[4],"inconclusive: 22.4 µM [rising, single point]"
same,activation,[7],inconclusive: 1.22% [phenotype inactive] [at 95 µM]
CC1(C)O[C@@H]2C[C@H]3[C@@H]4CCC5=CC(=O)CC[C@]5(C)[C@@]4(F)[C@@H](O)C[C@]3(C)[C@]2(C(=O)CCl)O1,Potency,[1],inactive
same,Potency,[6],"inconclusive: 1.02 µM [activator, partial curve]"
same,"activity change, negative = inhibition",[8],inconclusive: 0.367% [at 32.5 µM]
